Out of some 310,000 compounds screened, about 2,200 (0.71%) showed an effect of 50% or more. The effect is printed as a negative number. The list shows a part of the results.
molecular target: human ether-à-go-go-related gene (hERG) potassium channel (human, UniProt Q12809); assay: primary screen, population patch clamp on CHO cells stably expressing hERG
Sequence (Q12809 whole entry, looked up): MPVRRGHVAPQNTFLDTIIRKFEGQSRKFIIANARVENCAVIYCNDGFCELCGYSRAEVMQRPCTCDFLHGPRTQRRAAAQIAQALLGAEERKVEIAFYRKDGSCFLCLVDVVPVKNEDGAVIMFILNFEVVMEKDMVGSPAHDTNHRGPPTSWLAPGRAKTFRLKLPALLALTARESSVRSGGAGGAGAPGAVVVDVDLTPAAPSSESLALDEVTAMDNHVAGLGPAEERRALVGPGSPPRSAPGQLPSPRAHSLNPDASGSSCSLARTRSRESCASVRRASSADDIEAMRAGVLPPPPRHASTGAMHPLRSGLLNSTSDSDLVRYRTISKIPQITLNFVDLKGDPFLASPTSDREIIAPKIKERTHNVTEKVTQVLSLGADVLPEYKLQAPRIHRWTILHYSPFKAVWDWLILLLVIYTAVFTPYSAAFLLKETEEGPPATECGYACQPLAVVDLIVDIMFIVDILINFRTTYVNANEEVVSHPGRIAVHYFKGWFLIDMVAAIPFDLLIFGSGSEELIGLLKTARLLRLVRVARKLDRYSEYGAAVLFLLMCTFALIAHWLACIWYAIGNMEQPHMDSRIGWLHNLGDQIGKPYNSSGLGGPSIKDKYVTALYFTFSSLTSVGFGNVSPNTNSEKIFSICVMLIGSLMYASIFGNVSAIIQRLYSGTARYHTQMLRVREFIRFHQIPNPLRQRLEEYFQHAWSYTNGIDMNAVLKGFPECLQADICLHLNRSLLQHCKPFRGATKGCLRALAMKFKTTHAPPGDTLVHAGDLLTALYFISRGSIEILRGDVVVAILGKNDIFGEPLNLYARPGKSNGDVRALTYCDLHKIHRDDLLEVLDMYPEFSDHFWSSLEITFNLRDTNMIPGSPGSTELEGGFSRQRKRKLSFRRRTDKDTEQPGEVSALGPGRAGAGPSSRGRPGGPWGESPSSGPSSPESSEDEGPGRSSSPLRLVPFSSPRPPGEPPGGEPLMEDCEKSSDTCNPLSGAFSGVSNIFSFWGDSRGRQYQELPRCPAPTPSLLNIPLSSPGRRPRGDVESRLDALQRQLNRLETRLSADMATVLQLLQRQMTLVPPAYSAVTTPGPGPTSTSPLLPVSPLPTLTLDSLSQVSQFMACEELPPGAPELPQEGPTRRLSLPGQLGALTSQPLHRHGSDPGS

Compound | hERG current change (%, negative = inhibition) at 1uM
Cc1cccc(N2CCN(C(=O)CCn3c(=O)[nH]c4ccsc4c3=O)CC2C)c1 (stereo not drawn) | 15%
COc1c(Cl)cc(Cl)cc1C(=O)Nc1ccc(NC(C)=O)cc1 | 5.36%
CC(C(=O)NCc1ccccc1)N1CCN(c2ccc(F)cc2)CC1 (stereo not drawn) | 1.84%
C/C(=C\c1ccccc1)C(=O)NCCN1CCOCC1 | 11.7%
Cc1ccc(CC(=O)Nc2ccc(S(=O)(=O)Nc3nccc(C)n3)cc2)cc1 | 5.86%
CNC(=O)Cn1nc(-c2ccc(C)cc2)c2ccccc2c1=O | 1.96%
Cc1cc(C)n(CC(O)COc2ccc(F)cc2)n1 (stereo not drawn) | 9.53%
O=C1CC2OCC=C3CN4CCC56c7cc([N+](=O)[O-])ccc7N1C5C2C3CC46 (stereo not drawn) | 0.781%
Cc1ccc(CNC(=O)CSCc2ccccc2F)cc1 | 12%
COc1ccc(-c2n[nH]c(=S)n2-c2ccc(Br)cc2)cc1OC | 16.7%
CCCCN(Cc1ccco1)S(=O)(=O)c1c[nH]c(C(=O)OC)c1 | 12.5%
COc1ccc(NC2CCCN(C(=O)c3ccc4[nH]c(C)c(C)c4c3)C2)cc1 (stereo not drawn) | 9.71%
CCc1ccc(C2C(C#N)=C(N)N(N3CCOCC3)C3=C2C(=O)CC(C)(C)C3)s1 (stereo not drawn) | 10.4%
COC(=O)Cn1c(=NC(=O)CSCC(=O)Nc2cc(C)on2)sc2ccccc21 | 15.3%
CC(C)CC(CO)N1CCN(C(=O)c2ccccc2)CCC1=O (stereo not drawn) | 5.34%
CCCCOc1ccc(-c2ncc(C(=O)OCC)c(N)n2)cc1 | 12.3%
Cc1cccc(Cc2nnc(CCC(=O)NCc3cnc4ccccn34)o2)c1 | 11.9%
CN1C(=O)NC(NC(=O)c2cccs2)(C(F)(F)F)C1=O (stereo not drawn) | 9.41%
CN(C1CC(C)(C)N(O)C(C)(C)C1)S(=O)(=O)CC12CCC(CC1=O)C2(C)C.Cl (stereo not drawn) | 11.1%
Cc1nc(CN(C)Cc2nc(Cc3ccccc3Cl)no2)cs1 | 4.14%
c1ccc(CSc2ncnc3c2oc2ccccc23)cc1 | 9.56%
CCCCCCSc1ccc([C@@H]2[C@H]3C(=O)N(C)C(=O)[C@H]3[C@]3(C(=O)OC)CCCCN23)cc1OC.O=C(O)C(F)(F)F | 16.1%
CCCCCC(=O)Nc1ccc(S(=O)(=O)NC2=NCCCCC2)cc1 | 15.3%

Compound | hERG current change (%, negative = inhibition) at 1uM
CN(C)/C=C/C(=O)Oc1ccc(Cl)cc1Cl | 5.3%
O=C(NCc1ccc2c(c1)OCO2)C1CCCN1C(=O)Nc1ccc(Cl)cc1 (stereo not drawn) | 0.573%
C=CCOC(=O)C1=C(C)N=C2SCCC(=O)N2C1c1ccc(OC(=O)c2ccco2)cc1 (stereo not drawn) | -6.27%
Cc1nc(-c2cn[nH]c2)c2cc(C)oc2n1 | 14.9%
COc1ccc(/C=C2/C(=O)N(c3ccccc3)N=C2C)cc1Br | 15.4%
COC(=O)c1cn(NC(=O)COc2ccc(Cl)cc2)c(=O)c2ccccc12 | 8.5%
Cc1cccc(C)c1N1CCN(C(=O)N2CCCCC2)CC1 | 11.3%
COC(=O)c1cccc(NC(=O)CSc2nnc(COc3cccc(C)c3)n2C)c1 | 5.05%
Cn1c(=O)[nH]c2ccc([N+](=O)[O-])nc21 | 15.9%
CCN1CC2C3CCC(C)(O3)C2C1 (stereo not drawn) | -37%
CCOC(=O)c1c(C)[nH]c(C)c1C(=O)CSc1nc2ccccc2c(=O)n1-c1ccc(C)cc1 | 2.57%
S=C1NC2(CCCCC2)Cc2ccccc21 | 11.6%
NS(=O)(=O)c1ccc(Nc2nc3ccccc3nc2NS(=O)(=O)c2cccc([N+](=O)[O-])c2)cc1 | 5.32%
CC(=O)c1cc2c(cc1N(C(=O)Cn1nnc3ccccc31)C(C(=O)NCCC(C)C)c1cccnc1)OCO2 (stereo not drawn) | 6.08%
COc1ccc(N/C=C/C(=O)c2ccc(OC)c(OC)c2)cc1 | 5.01%
CCCC(=Nc1ccccc1OC)C1=C(O)CC(c2ccccc2)CC1=O (stereo not drawn) | 9.36%
C=CCN(CC(=O)NCc1ccc(F)cc1)C(=O)c1csnn1 | -7.8%
Clc1ccc(CNc2ncccn2)cc1 | 9.82%
Cc1ccc(C(=O)Nc2ccc3[nH]c(=O)[nH]c3c2)c(C)c1 | 12.5%
CN(C(=O)CSc1ncnc2scc(-c3ccccc3)c12)C1CCS(=O)(=O)C1 (stereo not drawn) | 8.1%
O=C(NCc1ccncc1)Nc1ccccc1F | 13.5%
CC(Nc1n[nH]c(=O)[nH]c1=O)C(=O)N/N=C/c1cccs1 (stereo not drawn) | 17.6%

Reference: publication PMC4336329 (PLoS ONE, 2015)
